# From the supplement of paper PMC10037445
# Over roughly 2,900 compounds, “IRF Lucia reporter activity, fold change vs agonist alone” has its median near 0.9; the highest 2% begin near 2.8. The list shows a part of the results.
# Tests used:
# [1] = tested on: RAW-Dual; assay: IRF Lucia reporter activity, fold change vs agonist alone; higher = enhanced IRF activity; conditions: agonist: MPLA (TLR4) […]
# Procedure, shortened: (§1)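 After 50 nL of library stock was delivered by pin tool to RAW-Dual macrophages (50,000 cells/well, DMEM, 384-well plates), a PRR agonist was added 1 h later and the plates were kept at 37 °C, 5% CO2. Twenty hours later, IRF was read from supernatant by QuantiLuc luminescence and NF-κB by QuantiBlue absorbance at 620 nm. Reporter activity is stated as fold change over agonist-alone wells. Wells with IncuCyte confluency under 70% of agonist controls in both mask sets were counted as cytotoxic.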
# [2] = tested on: RAW-Dual; assay: IRF Lucia reporter activity, fold change vs agonist alone; cytotoxicity flag (confluency mask): not cytotoxic; higher = enhanced IRF activity
# Procedure, shortened: as §1
# [3] = tested on: RAW-Dual; assay: IRF Lucia reporter activity, fold change vs agonist alone; cytotoxicity flag (confluency mask): cytotoxic (confluency <70% of control); higher = enhanced IRF activity
# Procedure, shortened: as §1
# [4] = library stock concentration (final ~1000-fold dilution): 10 mM, cytotoxicity flag (confluency mask): not cytotoxic
# [5] = agonist: 3'3'-cGAMP (STING) 10 ug/mL
smiles,measurement,setting,value
CC(=O)OC(C)OC(=O)C(C)c1ccc(-c2ccccc2)c(F)c1 (stereo not drawn),IRF Lucia reporter activity,[1]; [4],1.08
CC(=O)OC(C)OC(=O)C(C)c1ccc(-c2ccccc2)c(F)c1 (stereo not drawn) (library stock concentration (final ~1000-fold dilution): 10 mM),IRF Lucia reporter activity,[2]; [5],0.981
same,IRF Lucia reporter activity,[2]; agonist: LPS (TLR4) 0.1 ug/mL,1.03
Cc1ccc(NC(=O)c2cccc(C(C)(C)C#N)c2)cc1Nc1ccc2ncn(C)c(=O)c2c1 (library stock concentration (final ~1000-fold dilution): 10 mM),IRF Lucia reporter activity,[2]; [5],0.559
same,IRF Lucia reporter activity,[2]; agonist: LPS (TLR4) 0.1 ug/mL,0.808
Cc1ccc(NC(=O)c2cccc(C(C)(C)C#N)c2)cc1Nc1ccc2ncn(C)c(=O)c2c1,IRF Lucia reporter activity,[1]; [4],0.926
O=P(O)(O)Oc1cccc2ccccc12 (library stock concentration (final ~1000-fold dilution): 10 mM),IRF Lucia reporter activity,[2]; [5],1
same,IRF Lucia reporter activity,[2]; agonist: LPS (TLR4) 0.1 ug/mL,1.33
O=P(O)(O)Oc1cccc2ccccc12,IRF Lucia reporter activity,[1]; [4],1.11
Cl.Cn1cc(-c2nc(NC3CCCCC3N)c(F)c3c2C(=O)NC3)cn1 (stereo not drawn) (library stock concentration (final ~1000-fold dilution): 10 mM water),IRF Lucia reporter activity,[2]; [5],0.528
same,IRF Lucia reporter activity,[2]; agonist: LPS (TLR4) 0.1 ug/mL,0.75
OCCN(CCO)c1nc(N2CCCCC2)c2nc(N(CCO)CCO)nc(N3CCCCC3)c2n1 (library stock concentration (final ~1000-fold dilution): 10 mM),IRF Lucia reporter activity,[2]; [5],0.572
same,IRF Lucia reporter activity,[2]; agonist: LPS (TLR4) 0.1 ug/mL,0.89
OCCN(CCO)c1nc(N2CCCCC2)c2nc(N(CCO)CCO)nc(N3CCCCC3)c2n1,IRF Lucia reporter activity,[1]; [4],0.905
Cn1cnc([N+](=O)[O-])c1Sc1ncnc2nc[nH]c12 (library stock concentration (final ~1000-fold dilution): 10 mM),IRF Lucia reporter activity,[2]; [5],0.98
same,IRF Lucia reporter activity,[2]; agonist: LPS (TLR4) 0.1 ug/mL,0.942
Cn1cnc([N+](=O)[O-])c1Sc1ncnc2nc[nH]c12,IRF Lucia reporter activity,[1]; [4],0.621
NS(=O)(=O)c1ccccc1,IRF Lucia reporter activity,[1]; [4],1.15
NS(=O)(=O)c1ccccc1 (library stock concentration (final ~1000-fold dilution): 10 mM),IRF Lucia reporter activity,[2]; [5],0.988
same,IRF Lucia reporter activity,[2]; agonist: LPS (TLR4) 0.1 ug/mL,1.39
CCC1C(=O)N(C)c2cnc(Nc3ccc(C(=O)NC4CCC(N5CCN(CC6CC6)CC5)CC4)cc3OC)nc2N1C(C)C (stereo not drawn) (library stock concentration (final ~1000-fold dilution): 10 mM),IRF Lucia reporter activity,[2]; [5],0.981
same,IRF Lucia reporter activity,[2]; agonist: LPS (TLR4) 0.1 ug/mL,0.123
CCC1C(=O)N(C)c2cnc(Nc3ccc(C(=O)NC4CCC(N5CCN(CC6CC6)CC5)CC4)cc3OC)nc2N1C(C)C (stereo not drawn),IRF Lucia reporter activity,[1]; [4],1.23
COc1ccc(-n2c(SCCCN3C(=O)c4cccc5cccc(c45)C3=O)nnc2-c2ccncc2)cc1 (library stock concentration (final ~1000-fold dilution): 10 mM),IRF Lucia reporter activity,[2]; [5],1.09
same,IRF Lucia reporter activity,[2]; agonist: LPS (TLR4) 0.1 ug/mL,0.9
COc1ccc(-n2c(SCCCN3C(=O)c4cccc5cccc(c45)C3=O)nnc2-c2ccncc2)cc1,IRF Lucia reporter activity,[1]; [4],1.1
O=C1N[C@@H](Cc2cnc[nH]2)C(=O)N2CCC[C@@H]12 (library stock concentration (final ~1000-fold dilution): 10 mM),IRF Lucia reporter activity,[2]; [5],0.925
same,IRF Lucia reporter activity,[2]; agonist: LPS (TLR4) 0.1 ug/mL,0.988
Cc1cccc(CC(=O)N2CCc3c2ccc(-c2cn(C)c4ncnc(N)c24)c3F)n1 (library stock concentration (final ~1000-fold dilution): 10 mM),IRF Lucia reporter activity,[2]; [5],0.958
same,IRF Lucia reporter activity,[2]; agonist: LPS (TLR4) 0.1 ug/mL,0.592
Cc1cccc(CC(=O)N2CCc3c2ccc(-c2cn(C)c4ncnc(N)c24)c3F)n1,IRF Lucia reporter activity,[1]; [4],0.898
Cc1c(-c2cnccn2)ssc1=S (library stock concentration (final ~1000-fold dilution): 10 mM),IRF Lucia reporter activity,[2]; [5],0.148
same,IRF Lucia reporter activity,[2]; agonist: LPS (TLR4) 0.1 ug/mL,0.695
C(=C\c1ccccc1)/CN1CCN(C(c2ccccc2)c2ccccc2)CC1,IRF Lucia reporter activity,[1]; [4],0.986
C(=C\c1ccccc1)/CN1CCN(C(c2ccccc2)c2ccccc2)CC1 (library stock concentration (final ~1000-fold dilution): 10 mM),IRF Lucia reporter activity,[2]; [5],1.04
same,IRF Lucia reporter activity,[2]; agonist: LPS (TLR4) 0.1 ug/mL,1.06
CCCNC(=O)C1OC1C(=O)NC(C(=O)N1CCCC1C(=O)OC)C(C)CC (stereo not drawn),IRF Lucia reporter activity,[1]; [4],1.09
CCCNC(=O)C1OC1C(=O)NC(C(=O)N1CCCC1C(=O)OC)C(C)CC (stereo not drawn) (library stock concentration (final ~1000-fold dilution): 10 mM),IRF Lucia reporter activity,[2]; [5],0.915
same,IRF Lucia reporter activity,[2]; agonist: LPS (TLR4) 0.1 ug/mL,1.14
CC(=O)c1c(C)c2cnc(Nc3ccc(N4CCNCC4)cn3)nc2n(C2CCCC2)c1=O.O=S(=O)(O)CCO (library stock concentration (final ~1000-fold dilution): 10 mM water),IRF Lucia reporter activity,[2]; [5],0.284
same,IRF Lucia reporter activity,[2]; agonist: LPS (TLR4) 0.1 ug/mL,0.933
CC(=O)c1c(C)c2cnc(Nc3ccc(N4CCNCC4)cn3)nc2n(C2CCCC2)c1=O.O=S(=O)(O)CCO,IRF Lucia reporter activity,"[1]; library stock concentration (final ~1000-fold dilution): 10 mM water, cytotoxicity flag (confluency mask): not cytotoxic",1.4
CNCCCC12CCC(c3ccccc31)c1ccccc12.Cl,IRF Lucia reporter activity,[1]; [4],1.61
CNCCCC12CCC(c3ccccc31)c1ccccc12.Cl (library stock concentration (final ~1000-fold dilution): 10 mM),IRF Lucia reporter activity,[2]; [5],0.58
same,IRF Lucia reporter activity,[2]; agonist: LPS (TLR4) 0.1 ug/mL,1.3
CS(=O)(=O)O.CS(=O)(=O)O.N=C(N)Nc1ccc(C(=O)Oc2ccc3cc(C(=N)N)ccc3c2)cc1 (library stock concentration (final ~1000-fold dilution): 10 mM),IRF Lucia reporter activity,[2]; [5],1.09
same,IRF Lucia reporter activity,[2]; agonist: LPS (TLR4) 0.1 ug/mL,0.86
CS(=O)(=O)O.CS(=O)(=O)O.N=C(N)Nc1ccc(C(=O)Oc2ccc3cc(C(=N)N)ccc3c2)cc1,IRF Lucia reporter activity,[1]; [4],1.1
CONC(=O)Nc1ccc(-c2sc3c(c2CN(C)C)c(=O)n(-c2ccc(OC)nn2)c(=O)n3Cc2c(F)cccc2F)cc1 (library stock concentration (final ~1000-fold dilution): 10 mM),IRF Lucia reporter activity,[3]; [5],0.52
same,IRF Lucia reporter activity,[3]; agonist: LPS (TLR4) 0.1 ug/mL,1.59
CONC(=O)Nc1ccc(-c2sc3c(c2CN(C)C)c(=O)n(-c2ccc(OC)nn2)c(=O)n3Cc2c(F)cccc2F)cc1,IRF Lucia reporter activity,"[1]; library stock concentration (final ~1000-fold dilution): 10 mM, cytotoxicity flag (confluency mask): cytotoxic (confluency <70% of control)",1.85
CCc1ccc(NC(=O)Nc2c[nH]c3ccccc23)cc1 (library stock concentration (final ~1000-fold dilution): 1 mM),IRF Lucia reporter activity,[2]; [5],0.0266
same,IRF Lucia reporter activity,[2]; agonist: LPS (TLR4) 0.1 ug/mL,0.636
O=C(O)CC(C(=O)O)N1C(=O)/C(=C2/C(=O)Nc3ccc(Br)cc32)SC1=S (stereo not drawn) (library stock concentration (final ~1000-fold dilution): 10 mM),IRF Lucia reporter activity,[2]; [5],0.427
same,IRF Lucia reporter activity,[2]; agonist: LPS (TLR4) 0.1 ug/mL,1.15
N=C(N)c1ccc(OCCCCCOc2ccc(C(=N)N)cc2)cc1.O=S(=O)(O)CCO.O=S(=O)(O)CCO (library stock concentration (final ~1000-fold dilution): 10 mM),IRF Lucia reporter activity,[2]; [5],0.98
same,IRF Lucia reporter activity,[2]; agonist: LPS (TLR4) 0.1 ug/mL,1.4
N=C(N)c1ccc(OCCCCCOc2ccc(C(=N)N)cc2)cc1.O=S(=O)(O)CCO.O=S(=O)(O)CCO,IRF Lucia reporter activity,[1]; [4],1.2
